# Assay results taken from the RNAGym collection of RNA variant scans (doi:10.7554/elife.90254).
# Read counts are not given, so values of variants with three or more changes are uncertain.
# B1: LINE1-mini (parent)
# chain: GGCAGAGCUCAACACAGCGUGGCAAAGUGGCUGUGGCUAGACUGCC
# Variants of: B1
# Assay: self-cleavage, relative activity (ratio to wild type); higher = more cleavage; in vitro, sequencing; the parent is a self-cleaving ribozyme
row,Variant,self-cleavage
1,C3G C15G G33A G36U,0.02
2,C3G G36A U43A,0.23
3,C3U C8U C13G,0.19
4,C3U C10U C45U,0.04
5,C3G G17A U43A G44C,0.04
6,C3U C8U G19U G36A,0.12
7,C3U A4U C13A U38C G44C,0.09
8,C3U C10A C18A A24G A41U C45A,0.02
9,C3U A4U G5A,0.09
10,C3G C8A U38A,0.33
11,C3G G35A C46U,0
12,C3U C10A G30C C37G,0.01
13,C3G G5A C10G C31U A39U,0.02
14,C3G C18G A41G,0.12
15,C3U C10A G22C G44U,0.03
16,C3U A16G G19U C23A,0.11
17,C3U C8A G17C,0.14
18,C3G G7A G29C,0.12
19,C3G G5C A24G,0.05
20,C3G G19C G35A,0.08
21,C3U A4G C8A G44A C46U,0.42
22,C3U C10A G36U C42U G44U,0
23,C3G C15A G27C G44U,0.46
24,C3G C8U G19U,0.16

row,Variant,self-cleavage
1,C3U C15G C18A G21C C31A C42A,0.04
2,C3U A11U U32G C46U,0.03
3,C3U G5C G33A,0.07
4,C3U C23U G27C U28A G40A,0.02
5,C3U A16G G30A,0.01
6,C3G G5A A6C C10U A25C G35C G36U G40C C45U,0
7,C3U G5C A16C A39G C42G,0.03
8,C3G C10U A16C,0.03
9,C3U A12U A16C G22U C42U,0
10,C3U A14C G17C A26G U43C,0.02
11,C3U C8G C15A C23U,0.31
12,C3U A11U C15G C23A A26C,0.01
13,C3U A14U G35C,0.52
14,C3G G5C G7C A24C C37U A41C C42G,0
15,C3U C10G C15U C46G,0.03
16,C3G U9G C13G C46G,0.04
17,C3G C10G A12G A14G C15G,0.04
18,C3G G21U C23A G29C,0.62
19,C3U A25C G29A C42G G44C,0.02
20,C3G C8G G22A C45A,0.01
21,C3G C10G A11U G30A G33U C37U A39G A41C,0.01
22,C3G G5U A14G,0.09
23,C3G G22A G29U,0.23
24,C3G G17U G21A A41G,0.29

row,Variant,self-cleavage
1,C3G G5U C10A G21A C23U C31U,0.03
2,C3G C15U U32A C46U,0.27
3,C3G G22C A39U,0.08
4,C3U G5A A12U G21U C31U,0.04
5,C3G G5C C23G U28G,0.06
6,C3G G5A G19U,0.2
7,C3G G19U A26G,0.1
8,C3G G7U C10A A12G G19U G30U C42A C46U,0.01
9,C3G C31G C37A,0.03
10,C3U G5U C15U,0.13
11,C3U A11G A14C C31A G40U,0
12,C3G C13G G27U U28G A39C,0.16
13,C3U A4C G19C C37A,0
14,C3G C15A A25C C42A,0.07
15,C3U A12C C13A C42A,0.11
16,C3U A4U G21C C23A G33A G36U,0.08
17,C3G G5U A41U C42U,0.22
18,C3G U9A G36U C42A,0.16
19,C3G C13U U32C A39C G40U G44C,0.06
20,C3G A26G G40C A41U,0.04
21,C3G G5U C10A G21U A25C U43G G44A,0
22,C3U G5A C10G,0.06
23,C3U G5A C10A,0.08
24,C3U A6U G27A G33U,0.24

row,Variant,self-cleavage
1,C3U A16C G29A G35A,0.05
2,C3G C8G C15U A16C G19C A26C G36C,0.02
3,C3G C37G C42U,0
4,C3U A6U G7A C37U G40U C45A,0.07
5,C3G C10G G21C C23U,0.04
6,C3G A25U G35U,0.62
7,C3U A25U U28G,0.14
8,C3G C23G G35C,0.14
9,C3G G21A G36U,0.88
10,C3G G5A G7U C45U,0.32
11,C3G G5C A26C,0.07
12,C3U C8A G19C C46G,0.07
13,C3G C15U U38C C46U,0.05
14,C3U A6U G7A C46U,0.12
15,C3U C10U C46A,0.05
16,C3G U9C A14U,0.04
17,C3G G17A C37A A39G C45G,0.04
18,C3G C13A G17A A26C G40A,0.25
19,C3G G17C C31A C37A U38G G44A,0.02
20,C3U A26G G27A,1.12
21,C3U C15A G19C U20A C45U,0.07
22,C3G C10U A25C G30U,0.02
23,C3U C8A C15U C18A G33C U43C,0.17
24,C3U C10A G17U A25C A26C C31A C45A,0.02

row,Variant,self-cleavage
1,C3G C15U G17U U20G,0.15
2,C3U A6C A11C G21C G22U U34G,0.01
3,C3G G27U C37A U38A C45G,0.02
4,C3U C10A A24C,0.02
5,C3U C18G G22C C45A,0.06
6,C3G A26U G40C G44U,0.34
7,C3G C8U G30U C31U C37G C46U,0.13
8,C3U A24C C37A,0.16
9,C3U C18A G27C G35A G44A,0.01
10,C3G G19A G22A A24U C31G,0.15
11,C3U C10A U34A C46A,0.04
12,C3G C8A G21A C23A G30A G33U A39U G40U,0.16
13,C3G C8G A14C G29U C37U,0.02
14,C3G G5U G17U U20G C23G,0.05
15,C3G G17A C23G U34G,0.02
16,C3U A12C G29A,0.04
17,C3U C8G A16C G19C,0.2
18,C3U A14G U32A G35C,0.04
19,C3U C15G G19U A41G,0.18
20,C3U C10A A26G G27A U28C,0
21,C3G U9C A11G G19C U20A G36U,0.01
22,C3U C13A U43C,0.07
23,C3U A4G A6U U9G C45A,0.17
24,C3U C10A G44U,0.09

row,Variant,self-cleavage
1,C3G G19U U20G G22A C23A C31A C42U,0.09
2,C3U A4C U28C U32G,0.15
3,C3U C15A A26G U32A C45G,0.07
4,C3U A14C A25C G30A C31A G44A,0.04
5,C3G C18A G21U C46A,0.08
6,C3G C10A A11G G17U G33U C46A,0.01
7,C3U C15U A26C G27A C37G G44A,0.01
8,C3G G7A U20A,0.38
9,C3U C13G U43A C45G,0.05
10,C3G C15A G19C U32A,0.04
11,C3G G5U A12U A26C G36C A41G U43C,0.12
12,C3G U9C A41C,0.03
13,C3U C31A C46A,0.04
14,C3G C18A C46U,0.08
15,C3U A6G U9C A11U A39G,0.01
16,C3G G19U G30C A41U,0.02
17,C3U A16U G33U,0.08
18,C3U C13A G35A U43C,0.01
19,C3U C18A G21C,0.47
20,C3G G7U U32C U34G,0.06
21,C3G G19U G44U,0.26
22,C3U A4C U32G,0.05
23,C3U C42A C46A,0.1
24,C3U A26C C31A C37U,0.17

row,Variant,self-cleavage
1,C3U A6U A25G,0.53
2,C3U C23G G44U,0.06
3,C3U A12U C23G U43A G44C,0.09
4,C3G G22U C23A A24G U28C,0.06
5,C3G G30A C37U U38C,0.01
6,C3U A16U C46A,0.07
7,C3G G21U C46A,0.11
8,C3U G5U A39G,0.76
9,C3G C18A G29U G36U,0.02
10,C3G C15A U20C U43C,0.03
11,C3G G5U U34C,0.08
12,C3G G17C U32C C37U G40U,0.03
13,C3G G27U U32C A41C,0.03
14,C3U C10A G21U,0.01
15,C3G G22U G33A,0.1
16,C3G A26U G35U C45U,0.16
17,C3U A4U C13G A14U,0.11
18,C3G C10A U28C,0.11
19,C3U C10G A12U G19U U20A G21A G36C,0.02
20,C3G G5U A14U C15U,0.27
21,C3U A4U G17C C46U,0.01
22,C3G G22A G27U G35U,1.89
23,C3G G5C A6C C18G,0.14
